The chains are these.
T1: RBFOX1 RRM (Homo sapiens, UniProt Q9NWB1 109-208)
T1 sequence: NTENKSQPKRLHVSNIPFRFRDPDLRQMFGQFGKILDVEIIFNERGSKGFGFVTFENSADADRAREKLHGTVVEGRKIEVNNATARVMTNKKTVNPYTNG

B1: AUUACGA (DNA:RNA)
RNA: GGGAGACCGGAAUUCAGAUUGUCCAUUACGAUUAAAUCCCGUCGUAGCCACCA
DNA 1: CAATCTGAATTCCGGTCTCCC
DNA 2: TGGTGGCTACGACGGGATT
B2: CAAGGCG (DNA:RNA)
RNA: GGGAGACCGGAAUUCAGAUUGUCCCAAGGCGUUAAAUCCCGUCGUAGCCACCA
DNA 1: CAATCTGAATTCCGGTCTCCC
DNA 2: TGGTGGCTACGACGGGATT
B3: AGCGGGC (DNA:RNA)
RNA: B1 RNA with U26G, U27C, A28G, C29G, A31C
DNA 1: CAATCTGAATTCCGGTCTCCC
DNA 2: TGGTGGCTACGACGGGATT
B4: AUUCGUG (DNA:RNA)
RNA: B1 RNA with A28C, C29G, G30U, A31G
DNA 1: CAATCTGAATTCCGGTCTCCC
DNA 2: TGGTGGCTACGACGGGATT
B5: AAGACUU (DNA:RNA)
RNA: B1 RNA with U26A, U27G, G30U, A31U
DNA 1: CAATCTGAATTCCGGTCTCCC
DNA 2: TGGTGGCTACGACGGGATT
B6: GAUGCGC (DNA:RNA)
RNA: B1 RNA with A25G, U26A, A28G, A31C
DNA 1: CAATCTGAATTCCGGTCTCCC
DNA 2: TGGTGGCTACGACGGGATT
B7: AUGCACA (DNA:RNA)
RNA: B1 RNA with U27G, A28C, C29A, G30C
DNA 1: CAATCTGAATTCCGGTCTCCC
DNA 2: TGGTGGCTACGACGGGATT
B8: CCAAGGG (DNA:RNA)
RNA: B2 RNA with A26C, G28A, C30G
DNA 1: CAATCTGAATTCCGGTCTCCC
DNA 2: TGGTGGCTACGACGGGATT
B9: GUGAAGG (DNA:RNA)
RNA: B1 RNA with A25G, U27G, C29A, A31G
DNA 1: CAATCTGAATTCCGGTCTCCC
DNA 2: TGGTGGCTACGACGGGATT
B10: GGAAUUG (DNA:RNA)
RNA: B2 RNA with C25G, A26G, G28A, G29U, C30U
DNA 1: CAATCTGAATTCCGGTCTCCC
DNA 2: TGGTGGCTACGACGGGATT
B11: CGCCAUG (DNA:RNA)
RNA: B2 RNA with A26G, A27C, G28C, G29A, C30U
DNA 1: CAATCTGAATTCCGGTCTCCC
DNA 2: TGGTGGCTACGACGGGATT
B12: UUGACAG (DNA:RNA)
RNA: B1 RNA with A25U, U27G, G30A, A31G
DNA 1: CAATCTGAATTCCGGTCTCCC
DNA 2: TGGTGGCTACGACGGGATT
B13: GAUUUCG (DNA:RNA)
RNA: B2 RNA with C25G, A27U, G28U, G29U
DNA 1: CAATCTGAATTCCGGTCTCCC
DNA 2: TGGTGGCTACGACGGGATT
B14: UACGGUC (DNA:RNA)
RNA: B2 RNA with C25U, A27C, C30U, G31C
DNA 1: CAATCTGAATTCCGGTCTCCC
DNA 2: TGGTGGCTACGACGGGATT
B15: GGUAACU (DNA:RNA)
RNA: B1 RNA with A25G, U26G, C29A, G30C, A31U
DNA 1: CAATCTGAATTCCGGTCTCCC
DNA 2: TGGTGGCTACGACGGGATT
B16: AGUUUGA (DNA:RNA)
RNA: B1 RNA with U26G, A28U, C29U
DNA 1: CAATCTGAATTCCGGTCTCCC
DNA 2: TGGTGGCTACGACGGGATT
B17: AUUUAGU (DNA:RNA)
RNA: B1 RNA with A28U, C29A, A31U
DNA 1: CAATCTGAATTCCGGTCTCCC
DNA 2: TGGTGGCTACGACGGGATT
B18: UUAACCC (DNA:RNA)
RNA: B1 RNA with A25U, U27A, G30C, A31C
DNA 1: CAATCTGAATTCCGGTCTCCC
DNA 2: TGGTGGCTACGACGGGATT
B19: GCCAACG (DNA:RNA)
RNA: B2 RNA with C25G, A26C, A27C, G28A, G29A
DNA 1: CAATCTGAATTCCGGTCTCCC
DNA 2: TGGTGGCTACGACGGGATT
B20: GGCUCAC (DNA:RNA)
RNA: B1 RNA with A25G, U26G, U27C, A28U, G30A, A31C
DNA 1: CAATCTGAATTCCGGTCTCCC
DNA 2: TGGTGGCTACGACGGGATT
B21: UCAUCCU (DNA:RNA)
RNA: B2 RNA with C25U, A26C, G28U, G29C, G31U
DNA 1: CAATCTGAATTCCGGTCTCCC
DNA 2: TGGTGGCTACGACGGGATT
B22: CCUUAAC (DNA:RNA)
RNA: B1 RNA with A25C, U26C, A28U, C29A, G30A, A31C
DNA 1: CAATCTGAATTCCGGTCTCCC
DNA 2: TGGTGGCTACGACGGGATT
B23: CGAAGGA (DNA:RNA)
RNA: B1 RNA with A25C, U26G, U27A, C29G
DNA 1: CAATCTGAATTCCGGTCTCCC
DNA 2: TGGTGGCTACGACGGGATT
B24: AACUGGA (DNA:RNA)
RNA: B1 RNA with U26A, U27C, A28U, C29G
DNA 1: CAATCTGAATTCCGGTCTCCC
DNA 2: TGGTGGCTACGACGGGATT
B25: AUUGAAG (DNA:RNA)
RNA: B1 RNA with A28G, C29A, G30A, A31G
DNA 1: CAATCTGAATTCCGGTCTCCC
DNA 2: TGGTGGCTACGACGGGATT
B26: CCGGCAC (DNA:RNA)
RNA: B2 RNA with A26C, A27G, G29C, C30A, G31C
DNA 1: CAATCTGAATTCCGGTCTCCC
DNA 2: TGGTGGCTACGACGGGATT
B27: CUUGUCA (DNA:RNA)
RNA: B1 RNA with A25C, A28G, C29U, G30C
DNA 1: CAATCTGAATTCCGGTCTCCC
DNA 2: TGGTGGCTACGACGGGATT
B28: CCGUCUG (DNA:RNA)
RNA: B2 RNA with A26C, A27G, G28U, G29C, C30U
DNA 1: CAATCTGAATTCCGGTCTCCC
DNA 2: TGGTGGCTACGACGGGATT
B29: UUAUGAG (DNA:RNA)
RNA: B2 RNA with C25U, A26U, G28U, C30A
DNA 1: CAATCTGAATTCCGGTCTCCC
DNA 2: TGGTGGCTACGACGGGATT
B30: AGCCUAC (DNA:RNA)
RNA: B1 RNA with U26G, U27C, A28C, C29U, G30A, A31C
DNA 1: CAATCTGAATTCCGGTCTCCC
DNA 2: TGGTGGCTACGACGGGATT
B31: AAACUGA (DNA:RNA)
RNA: B1 RNA with U26A, U27A, A28C, C29U
DNA 1: CAATCTGAATTCCGGTCTCCC
DNA 2: TGGTGGCTACGACGGGATT

Substitutions are numbered along the chain they refer to; changes in the protein carry UniProt numbers. The list shows a part of the results.

This assay deals with T1, RBFOX1 RRM. As to the kind of experiment: EMSA; HiTS-Eq, 1 nM pool, 10 min; buffer printed only for the single-RNA assays: 10 mM Tris pH 7.5, 150 mM NaCl, 3.4 mM EDTA, 0.001% NP-40, 30 C. Particulars: tags: His6 N-terminal (pET28a); label: 5' 32P. Put shortly:
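Purified wild-type or mutant RbFox RRM at increasing concentrations was equilibrated with 1 nM of 5′-radiolabelled RNA carrying 7 randomized nucleotides for 10 min in 50 µL. Unbound RNA was separated by 8% native PAGE and sequenced. Relative association constants came from read-count changes of each RNA species compared with the control reaction, normalised to the cognate motif.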
(In general: A gel shift assay detects complexes by their altered migration in electrophoresis.)
B1: the binding signal was 0.0064 KA relative to UGCAUGU.

Take B2: the binding signal was 0.00837 KA relative to UGCAUGU.

B3: the binding signal was 0.00996 KA relative to UGCAUGU.

As for B4, the binding signal was 0.0106 KA relative to UGCAUGU.

B5: the binding signal is 0.00324 KA relative to UGCAUGU.

Regarding B6, the binding signal is 0.02 KA relative to UGCAUGU.

B7: the binding signal is 0.00803 KA relative to UGCAUGU.

Regarding B8, the binding signal was 0.00323 KA relative to UGCAUGU.

As to B9, the binding signal was 0.011 KA relative to UGCAUGU.

In the case of B10, the binding signal is 0.0162 KA relative to UGCAUGU.

B11: the binding signal is 0.011 KA relative to UGCAUGU.

In the case of B12, the binding signal was 0.0146 KA relative to UGCAUGU.

For B13, the binding signal is 0.0136 KA relative to UGCAUGU.

Consider B14, for which the binding signal was 0.0104 KA relative to UGCAUGU.

On to B15, for which the binding signal is 0.00466 KA relative to UGCAUGU.

For the molecule B16, the binding signal is 0.0168 KA relative to UGCAUGU.

Regarding B17, the binding signal is 0.0103 KA relative to UGCAUGU.

With B18, the binding signal was 0.000601 KA relative to UGCAUGU.

In the case of B19, the binding signal is 0.00816 KA relative to UGCAUGU.

As for B20, the binding signal is 0.0086 KA relative to UGCAUGU.

B21: the binding signal is 0.000735 KA relative to UGCAUGU.

With B22, the binding signal is 0.0026 KA relative to UGCAUGU.

On to B23, for which the binding signal is 0.00859 KA relative to UGCAUGU.

As for B24, the binding signal is 0.00447 KA relative to UGCAUGU.

In the case of B25, the binding signal was 0.0126 KA relative to UGCAUGU.

For B26, the binding signal was 0.0154 KA relative to UGCAUGU.

For B27, the binding signal is 0.00571 KA relative to UGCAUGU.

In the case of B28, the binding signal was 0.01 KA relative to UGCAUGU.

Regarding B29, the binding signal is 0.015 KA relative to UGCAUGU.

Regarding B30, the binding signal is 0.00721 KA relative to UGCAUGU.

In the case of B31, the binding signal is 0.00156 KA relative to UGCAUGU.

These data come from PMC9911399, “Two distinct binding modes provide the RNA-binding protein RbFox with extraordinary sequence specificity”.
